In ChEMBL document CHEMBL4888484, “Replenishing the malaria drug discovery pipeline: Screening and hit evaluation of the MMV Hit Generation Library 1 (HGL1) against asexual blood stage Plasmodium falciparum ,using a nano luciferase reporter read-out” (2022):
In all, about 150,000 compounds went through this assay and about 540 (0.36%) showed an effect of 50% or more. Some of the results follow.

tested on: Plasmodium falciparum; experiment: Primary screen in NF54 nanoGlo assay, in single point, at 2uM, 72h; a lower Z score goes with more inhibition; format: functional, Erythrocyte; details: timepoint 72 hour

SMILES	% Inhibition [%]	Z score
O=C(NC1CCCC1)C(=O)N1CCN(c2ccc(F)cc2)CC1	-5	0.77
O=C(Cc1ccc(F)cc1)N1CC(=O)N(Cc2ccccc2)C2(CCCCC2)C1	-10	1.52
CCCCOC(=O)N1CCN(Cc2ccncc2)[C@@H]2CS(=O)(=O)C[C@@H]21	3	-0.44
CCn1cc(C(=O)NCCNC(=O)c2cn(CC)nc2C)c(C)n1	3	-0.36
COc1ccc(CNC(=O)[C@@H]2CCCN2C)cc1OC	2	-0.29
O=C(c1ccc2nsnc2c1)N1Cc2cncnc2C1	-5	0.8
O=C(Nc1ccc(C(=O)C2CCC2)cc1)Nc1cnn(CCF)c1	11	-1.24
Cc1cnc(C(=O)Nc2cccc(Cn3ccnc3)c2)cn1	-10	1.62
CC(=O)N1CCN(c2nc3cc(Cl)ccc3cc2CNC[C@H](C)c2ccccc2)CC1	-12	1.59
CN(c1ccc(C(=O)Nc2ccc3c(c2)OCCO3)c(Cl)c1)S(C)(=O)=O	-16	1.98
Cc1cc(N)n(-c2nc(-c3cccs3)cs2)n1	20	-2.55
COc1ccc(-n2nc(C)c3c(N4CCCN(C(=O)NC(C)(C)C)CC4)nc(C4CC4)nc32)cc1	-10	1.2
COCCn1c(CO)nnc1[C@H]1C[C@@H](NC(=O)c2c(C)cccc2C)C1	2	-0.28
CCN(CC)c1ncnc2c(-c3ccccc3)cn(CC(=O)N3CCCC3)c12	2	-0.35
CCc1c(C(=O)N2CCOC[C@](O)(CN3CCCC3)C2)csc1C	-1	0.11
Cc1nonc1N1CCN(C(=O)c2ccc3c(c2)OCCO3)CC1	-11	1.08
FC(F)Oc1cccc(COc2nnc3ccccn23)c1	-17	1.57
COc1nn(C)cc1CNC(=O)[C@H]1CCCN1C(=O)c1ccccc1	-3	0.39
CN(Cc1ncnn1C)C(=O)NCC1(c2cccs2)CCCCC1	33	-4.71
C=C(C)CN(CC)S(=O)(=O)c1ccc2c(c1)CCO2	-7	0.62
N[C@H]1CCN(C(=O)CCOc2cc(Cl)cc(Cl)c2)C1	-8	1.14

SMILES	% Inhibition [%]	Z score
C[C@H]1CN(C(=O)CCc2nc3ccccc3s2)CCN1	-3	0.47
COC(=O)c1ccc(C(C)C)c(NC(=O)CCc2cncn2C)c1	-2	0.23
COc1ccc(CNC(=O)Cc2cc(-c3ccccc3)on2)cc1	-5	0.63
Cc1cc(C)n(CCc2nnc(NC(=O)NCc3ccc(C)o3)s2)n1	-2	0.27
NC(=O)Nc1cccc(NC(=O)C2CCCCC2c2nc3cc(Cl)ccc3[nH]2)c1 (stereo not drawn)	-7	0.68
Cc1cc(C)c(C(=O)N2CCC(OCC3CCCC3)CC2)[nH]1	-6	0.89
COc1ccsc1S(=O)(=O)Nc1cnoc1-c1ccccc1	-10	0.84
CN(C1CC(C)(C)N(O)C(C)(C)C1)S(=O)(=O)CC12CCC(CC1=O)C2(C)C (stereo not drawn)	-8	0.96
Cc1ccc(CNS(=O)(=O)c2cc(-c3onc(C)c3C)sc2C)cc1	-7	0.71
C=CCn1c(=O)c2sc(N(CC)CC)nc2n(CC(=O)Nc2c(C)cccc2C)c1=O	-17	1.46
CN1C(=O)[C@]2(CCN(C(=O)Cc3ccc(Cl)cc3)C2)c2ccccc21	-9	1.18
Cc1ccc(CN2C(=O)COc3ccc(C(=O)Nc4nccs4)cc32)cc1	-8	1.01
CC(C)CCNC(=O)c1cn2c3c(cccc3c1=O)C[C@@H]2C	4	-0.49
O=C(NCc1nnc2n1CCOC2)[C@@H](O)C1CCCCCCC1	-10	1.01
COc1ccc(F)cc1S(=O)(=O)N1CCC2(CC1)C[C@@H]2NC(=O)c1ccncc1	-1	0.11
Cc1cc(-c2c(C)sc(C)c2S(=O)(=O)N2CCc3ccccc32)on1	-13	2.18
C[C@H](OC(=O)c1ccc2nccnc2c1)C(=O)Nc1c(F)cccc1F	2	-0.24
Cc1ccc2oc(CN3CCC[C@H](c4ccnn4CC(=O)O)C3)c(C)c2c1	7	-1.14
O=C(Nc1ccccc1)c1cc2nc(N3CCCCC3)sc2s1	5	-0.79
CN(Cc1ccccc1)C(=O)C[C@@H]1CCNC[C@@H]1Cc1cc(CN(C)c2ccccc2)on1	31	-3.52
CC[C@@H](CO)NCc1cccc(Cl)c1Cl	-6	0.73

SMILES	% Inhibition [%]	Z score
Cc1nccc(N2CC(Nc3cccc(C#N)c3)C2)n1	12	-1.4
O=C(Nc1cccc(NC(=O)c2ccccc2)n1)c1ccccc1	-8	0.99
Cc1ccc(CNC(=O)CN2CCc3[nH]c4c(C)cc(C)cc4c(=O)c3C2)cc1	7	-0.78
Fc1ccc(-c2noc([C@@H]3CCCN3Cc3ncc[nH]3)n2)nc1	-12	2.28
CC(C)c1nc([C@@H]2CCCCCN2C(=O)c2nc(C3CC3)n3ccccc23)no1	-6	0.98
CCCc1nsc(NC23CCC2CN(C(=O)c2ccon2)C3)n1 (stereo not drawn)	-13	1.42
CC[C@H]1C(=O)N(C)CCN1C(=O)c1cccnc1C	4	-0.83
CCC[C@H](NC(C)=O)C(=O)NCc1nc(C(F)(F)F)n[nH]1	-4	0.65
CC(=O)Nc1nc(C(=O)Nc2cccnc2)cs1	-3	0.39
CCNC(=O)N1CC=C(C(=O)Nc2ccc(C)cc2)CC1	-6	1.12
CN(C)c1ccnc(C(=O)N(Cc2ccncc2)Cc2cccnc2)c1	-6	0.76
Cc1cc(NC(=O)Cc2ccc(-c3ccccc3)cc2)n(-c2nc3c(c(=O)[nH]2)CCC3)n1	-4	0.86
Cc1noc(C(C)C)c1NC(=O)c1c2ccccc2nn1C	-3	0.38
COc1cccc2nnc(NC(=O)CCC(=O)NCc3ccc(F)c(Cl)c3)n12	7	-1.04
CC1CCCCC1NC(=O)CON=C(N)CN1CCOC(C)(C)C1 (stereo not drawn)	-6	1.09
c1ccc(Cn2cccn2)c(CN2CCCn3cncc3C2)c1	-2	0.41
COc1ccc2c(c1O)-c1ccccc1CCN(C)C2	-3	0.38
O=C(Cc1cccnc1)N1CCC(n2c(=O)[nH]c3ccc(F)cc3c2=O)CC1	-8	1.45
O=C(NCC1(c2ccc(Br)cc2Cl)CC1)N1CC[C@@]2(O)C[C@H]2C1	-1	0.12
C[C@]1(C(=O)Nc2cn[nH]c2)CCCN(C(=O)c2ccccc2)C1	-8	1.66
COc1cccc(CN2C[C@@H](F)[C@@H](OCc3nc4ccccc4o3)C2)c1	29	-3.23

SMILES	% Inhibition [%]	Z score
CCN(CC)C(=O)N1C[C@H](NC(=O)c2cn(C)c(=O)[nH]c2=O)[C@@H](C2CC2)C1	5	-0.93
CCOc1ccc(NC(=O)[C@@H]2Oc3ccccc3NC2=O)cc1	-13	1.55
COc1cc(NC(=O)c2ncoc2C(C)C)cc(-n2cnnn2)c1	5	-1
CC(C)(C)c1nsc(N2CCO[C@H](c3nccs3)C2)n1	-3	0.53
N#Cc1ccc(NCCc2cnn(-c3ccccc3)c2)nc1	-8	0.82
Cc1cccnc1N1CCN(C(=O)c2ccc(-c3ccccc3)n2C)CC1	-10	1.86
CCS(=O)(=O)N1CCCC[C@H](c2ccccc2)C1	-11	1.65
CN1CCN(C(=O)[C@H]2CCc3sc(C(=O)N4CCCCC4)cc3C2)CC1	30	-3.39
O=S(=O)(Oc1c(F)c(F)c(F)c(F)c1F)c1ccnc2ccccc12	-7	0.92
Cc1c(CN(CCCO)Cc2cccnc2)oc2ccccc12	-9	1.73
Cc1nn(C)c(C(=O)NCCS(=O)(=O)N(C)C)c1Cl	-6	1.08
CC(C)(C)OC(=O)N1CCC(CC(=O)N2CC(Nc3ccncn3)C2)CC1	0	0.07
Cn1c(COc2ccc(C(=O)NC3CC3)cc2)cc(=O)n(C)c1=O	5	-0.9
Cn1cc(C(=O)N2CCC[C@H]2c2nnc(C3CCOCC3)[nH]2)cn1	4	-0.58
CCC[C@H]1C=CCN1C(=O)c1nn2cc(C)cnc2c1Cl	0	0.01
O=C(Nc1nc(CC2CC2)ns1)c1occ2c1CCC2	-7	0.8
O=C(Cn1nc2ccc(C(=O)NCc3ccccc3)cn2c1=O)NCCC1=CCCCC1	-26	2.29
CCC(=O)NCc1cccc(-n2ccnc2-c2cccnc2)c1	2	-0.39
Cc1cc(Cn2cc(-c3cccc(-c4ccco4)c3)nn2)n[nH]1	3	-0.29
C[C@@H](Cn1ccc2ccccc21)NCC(=O)Nc1cnccn1	-1	0.19
COc1cccc(Cn2ncc(N(C)Cc3ccccc3)cc2=O)c1OC	-5	1.02
